Test results from patent publication US4228292A, “N-Substituted benzothiazolines and benzoxazolines and their use as herbicides and plant growth regulants” (Monsanto Company, priority 1978, dated 1980).
Several values for one entry are separate records, joined by “and”; a condition that tells them apart may be missing. Equal values may be shown once. The name of at least one read-out is uncertain. Some compounds share one range, which may span the group rather than tell each member.

Columns and labels:
Type in all cases: in vivo
[1] = tested on: Morning Glory; assay: post-emergent herbicidal test; settings: D
[2] = tested on: Nutsedge; assay: pre-emergent herbicidal test; settings: G, 5.6 kg/h
[3] = tested on: Downy Brome; assay: post-emergent herbicidal test; settings: J
[4] = tested on: Velvetleaf; assay: post-emergent herbicidal test; settings: C
[5] = tested on: Cocklebur; assay: post-emergent herbicidal test; settings: B
[6] = tested on: Quackgrass; assay: post-emergent herbicidal test; settings: H; 5.6 kg/h; 4 WAT
[7] = tested on: Johnson Grass; assay: pre-emergent herbicidal test; settings: I, 5.6 kg/h
[8] = tested on: Canada Thistle; assay: post-emergent herbicidal test; settings: A; 5.6 kg/h; 4 WAT
[9] = tested on: Nutsedge; assay: post-emergent herbicidal test; settings: G; 5.6 kg/h; 4 WAT
[10] = tested on: Morning Glory; assay: pre-emergent herbicidal test; settings: D
[11] = tested on: Barnyard Grass; assay: pre-emergent herbicidal test; settings: K
[12] = tested on: Smartweed; assay: pre-emergent herbicidal test; settings: F
[13] = tested on: Canada Thistle; assay: pre-emergent herbicidal test; settings: A, 5.6 kg/h
[14] = tested on: Velvetleaf; assay: pre-emergent herbicidal test; settings: C
[15] = tested on: Smartweed; assay: post-emergent herbicidal test; settings: F
[16] = tested on: Quackgrass; assay: pre-emergent herbicidal test; settings: H, 5.6 kg/h
[17] = tested on: Lambsquarters; assay: post-emergent herbicidal test; settings: E
[18] = tested on: Downy Brome; assay: pre-emergent herbicidal test; settings: J
[19] = tested on: Johnson Grass; assay: post-emergent herbicidal test; settings: I; 5.6 kg/h; 4 WAT
[20] = tested on: Lambsquarters; assay: pre-emergent herbicidal test; settings: E
[21] = tested on: Cocklebur; assay: pre-emergent herbicidal test; settings: B
[22] = tested on: Barnyard Grass; assay: post-emergent herbicidal test; settings: K

CCOC(=N)Cn1c(=O)sc2ccccc21 [Compound 25]
post-emergent herbicidal rating ([1]; 5.6 kg/h, 4 WAT): 2 (50-74) | pre-emergent herbicidal rating ([2]; 4 WAT): 1 (25-49) | post-emergent herbicidal rating ([3]; 5.6 kg/h, 4 WAT): 0 (0-24) | post-emergent herbicidal rating ([4]; 5.6 kg/h, 4 WAT): 2 (50-74) | post-emergent herbicidal rating ([5]; 5.6 kg/h, 4 WAT): 3 (75-99) | post-emergent herbicidal rating [6]: 0 (0-24) | pre-emergent herbicidal rating ([7]; 4 WAT): 2 (50-74) | post-emergent herbicidal rating [8]: 4 (100) | post-emergent herbicidal rating [9]: 0 (0-24) | pre-emergent herbicidal rating ([10]; 0.056 kg/h, 2 WAT): 0 (0-24) | pre-emergent herbicidal rating ([10]; 0.28 kg/h, 2 WAT): 0 (0-24) | pre-emergent herbicidal rating ([10]; 1.12 kg/h, 4 WAT): 1 (25-49) | pre-emergent herbicidal rating ([10]; 5.6 kg/h, 4 WAT): 2 (50-74) | pre-emergent herbicidal rating ([11]; 0.056 kg/h, 2 WAT): 0 (0-24) | pre-emergent herbicidal rating ([11]; 0.28 kg/h, 2 WAT): 0 (0-24) | pre-emergent herbicidal rating ([11]; 1.12 kg/h, 4 WAT): 0 (0-24) | pre-emergent herbicidal rating ([12]; 0.056 kg/h, 2 WAT): 0 (0-24) | pre-emergent herbicidal rating ([12]; 0.28 kg/h, 2 WAT): 0 (0-24) | pre-emergent herbicidal rating ([12]; 1.12 kg/h, 4 WAT): 2 (50-74) | pre-emergent herbicidal rating ([12]; 5.6 kg/h, 4 WAT): 3 (75-100) | pre-emergent herbicidal rating ([13]; 4 WAT): 3 (75-100) | pre-emergent herbicidal rating ([14]; 0.056 kg/h, 2 WAT): 0 (0-24) | pre-emergent herbicidal rating ([14]; 0.28 kg/h, 2 WAT): 0 (0-24) | pre-emergent herbicidal rating ([14]; 1.12 kg/h, 4 WAT): 1 (25-49) | pre-emergent herbicidal rating ([14]; 5.6 kg/h, 4 WAT): 2 (50-74) and 3 (75-100) | post-emergent herbicidal rating ([15]; 5.6 kg/h, 4 WAT): 4 (100) | pre-emergent herbicidal rating ([16]; 4 WAT): 3 (75-100) | post-emergent herbicidal rating ([17]; 5.6 kg/h, 4 WAT): 4 (100) | pre-emergent herbicidal rating ([18]; 0.056 kg/h, 2 WAT): 0 (0-24) | pre-emergent herbicidal rating ([18]; 0.28 kg/h, 2 WAT): 0 (0-24) | pre-emergent herbicidal rating ([18]; 1.12 kg/h, 4 WAT): 0 (0-24) | post-emergent herbicidal rating [19]: 0 (0-24) | pre-emergent herbicidal rating ([20]; 0.056 kg/h, 2 WAT): 0 (0-24) | pre-emergent herbicidal rating ([20]; 0.28 kg/h, 2 WAT): 0 (0-24) | pre-emergent herbicidal rating ([20]; 1.12 kg/h, 4 WAT): 2 (50-74) | pre-emergent herbicidal rating ([20]; 5.6 kg/h, 4 WAT): 3 (75-100) | pre-emergent herbicidal rating ([21]; 0.056 kg/h, 2 WAT): 1 (25-49) | pre-emergent herbicidal rating ([21]; 0.28 kg/h, 2 WAT): 1 (25-49) | pre-emergent herbicidal rating ([21]; 1.12 kg/h, 4 WAT): 1 (25-49) | pre-emergent herbicidal rating ([21]; 5.6 kg/h, 4 WAT): 3 (75-100) | post-emergent herbicidal rating ([22]; 5.6 kg/h, 4 WAT): 0 (0-24)

COC(=N)Cn1c(=O)sc2ccc(Cl)cc21 [Compound 27]
post-emergent herbicidal rating ([1]; 0.28 kg/h, 2 WAT): 1 (25-49) | post-emergent herbicidal rating ([1]; 1.12 kg/h, 4 WAT): 2 (50-74) | post-emergent herbicidal rating ([1]; 5.6 kg/h, 4 WAT): 2 (50-74) | pre-emergent herbicidal rating ([2]; 2 WAT): 0 (0-24) | post-emergent herbicidal rating ([3]; 0.28 kg/h, 2 WAT): 0 (0-24) | post-emergent herbicidal rating ([3]; 1.12 kg/h, 4 WAT): 0 (0-24) | post-emergent herbicidal rating ([3]; 5.6 kg/h, 4 WAT): 0 (0-24) | post-emergent herbicidal rating ([4]; 0.28 kg/h, 2 WAT): 1 (25-49) | post-emergent herbicidal rating ([4]; 1.12 kg/h, 4 WAT): 2 (50-74) | post-emergent herbicidal rating ([4]; 5.6 kg/h, 4 WAT): 2 (50-74) | post-emergent herbicidal rating ([5]; 0.28 kg/h, 2 WAT): 1 (25-49) | post-emergent herbicidal rating ([5]; 1.12 kg/h, 4 WAT): 2 (50-74) | post-emergent herbicidal rating ([5]; 5.6 kg/h, 4 WAT): 3 (75-99) | post-emergent herbicidal rating [6]: 0 (0-24) | pre-emergent herbicidal rating ([7]; 2 WAT): 0 (0-24) | post-emergent herbicidal rating [8]: 4 (100) | post-emergent herbicidal rating [9]: 0 (0-24) | pre-emergent herbicidal rating ([10]; 5.6 kg/h, 2 WAT): 1 (25-49) | pre-emergent herbicidal rating ([11]; 5.6 kg/h, 2 WAT): 0 (0-24) | pre-emergent herbicidal rating ([12]; 5.6 kg/h, 2 WAT): 1 (25-49) | pre-emergent herbicidal rating ([13]; 2 WAT): 1 (25-49) | pre-emergent herbicidal rating ([14]; 5.6 kg/h, 2 WAT): 1 (25-49) | post-emergent herbicidal rating ([15]; 0.28 kg/h, 2 WAT): 0 (0-24) | post-emergent herbicidal rating ([15]; 1.12 kg/h, 4 WAT): 3 (75-99) | post-emergent herbicidal rating ([15]; 5.6 kg/h, 4 WAT): 4 (100) | pre-emergent herbicidal rating ([16]; 2 WAT): 0 (0-24) | post-emergent herbicidal rating ([17]; 0.28 kg/h, 2 WAT): 1 (25-49) | post-emergent herbicidal rating ([17]; 1.12 kg/h, 4 WAT): 3 (75-99) | post-emergent herbicidal rating ([17]; 5.6 kg/h, 4 WAT): 4 (100) | pre-emergent herbicidal rating ([18]; 5.6 kg/h, 2 WAT): 0 (0-24) | post-emergent herbicidal rating [19]: 0 (0-24) | pre-emergent herbicidal rating ([20]; 5.6 kg/h, 2 WAT): 1 (25-49) | pre-emergent herbicidal rating ([21]; 5.6 kg/h, 2 WAT): 1 (25-49) | post-emergent herbicidal rating ([22]; 0.28 kg/h, 2 WAT): 0 (0-24) | post-emergent herbicidal rating ([22]; 1.12 kg/h, 4 WAT): 0 (0-24) | post-emergent herbicidal rating ([22]; 5.6 kg/h, 4 WAT): 0 (0-24)
